{"source": "PubChem BioAssay AID504332", "about": "(National Center for Advancing Translational Sciences (NCATS), 2011)", "note": "Hit rate of the full screen: of about 350,000 compounds, about 31,000 (8.9%) were called active. Inconclusive results, whose numbers are uncertain, are shown with a selection of clear calls. The call rests on the fitted dose curve; in most records, active means well fitted inhibition curve with a large enough effect; inconclusive means small, poorly fitted or top-dose-only effect; inactive means no such curve, though single readings can be large or run the other way. Where the call is inconclusive, the potency comes from a doubtful curve fit. Potency means the concentration at half of the fitted maximal effect; tags describe the fitted curve by direction and shape.", "data": [{"molecular_target": "Histone-lysine N-methyltransferase EHMT2 (Homo sapiens) (UniProt Q96KQ7)", "sequence (Q96KQ7 whole entry, looked up)": "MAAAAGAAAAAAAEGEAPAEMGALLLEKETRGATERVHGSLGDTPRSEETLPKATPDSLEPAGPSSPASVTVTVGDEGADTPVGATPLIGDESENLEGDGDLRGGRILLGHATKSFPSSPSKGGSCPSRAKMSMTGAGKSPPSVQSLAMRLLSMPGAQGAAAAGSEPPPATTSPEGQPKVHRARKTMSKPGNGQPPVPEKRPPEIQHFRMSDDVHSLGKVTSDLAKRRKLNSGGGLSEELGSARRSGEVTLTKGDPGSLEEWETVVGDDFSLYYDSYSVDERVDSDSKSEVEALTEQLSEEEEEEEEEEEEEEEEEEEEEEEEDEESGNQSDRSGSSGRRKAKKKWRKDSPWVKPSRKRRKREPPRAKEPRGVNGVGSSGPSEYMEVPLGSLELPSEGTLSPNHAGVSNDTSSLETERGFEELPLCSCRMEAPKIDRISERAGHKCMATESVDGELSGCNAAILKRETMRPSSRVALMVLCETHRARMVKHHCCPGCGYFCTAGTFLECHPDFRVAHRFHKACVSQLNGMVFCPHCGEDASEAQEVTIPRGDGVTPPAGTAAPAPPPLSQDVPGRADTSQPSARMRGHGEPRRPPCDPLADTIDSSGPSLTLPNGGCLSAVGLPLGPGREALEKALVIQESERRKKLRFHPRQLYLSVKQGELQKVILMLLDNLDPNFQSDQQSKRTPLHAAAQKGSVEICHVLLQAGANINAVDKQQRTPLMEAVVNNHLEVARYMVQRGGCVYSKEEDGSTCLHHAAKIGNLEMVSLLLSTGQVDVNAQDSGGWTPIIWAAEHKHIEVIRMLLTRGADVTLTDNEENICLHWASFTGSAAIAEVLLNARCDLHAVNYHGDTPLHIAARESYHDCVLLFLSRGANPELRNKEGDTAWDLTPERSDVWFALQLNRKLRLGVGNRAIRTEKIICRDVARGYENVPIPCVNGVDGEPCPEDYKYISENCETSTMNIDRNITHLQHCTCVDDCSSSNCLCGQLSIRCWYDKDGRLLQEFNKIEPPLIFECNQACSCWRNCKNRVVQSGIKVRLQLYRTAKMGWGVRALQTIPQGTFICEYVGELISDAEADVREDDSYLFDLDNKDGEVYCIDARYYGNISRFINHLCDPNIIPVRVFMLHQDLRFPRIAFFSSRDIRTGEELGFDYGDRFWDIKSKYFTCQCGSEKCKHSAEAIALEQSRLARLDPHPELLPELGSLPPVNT", "test": "qHTS Assay for Inhibitors of Histone Lysine Methyltransferase G9a; further: nearly all actives have a fitted effect of over 75% in size", "conditions": "G9a H3K9 monomethylation, AlphaScreen, 2 h; series mostly up to 59 µM", "procedure,_shortened": "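Readings reflect AlphaScreen signal from monomethyl-H3K9 antibody detection. HMT at 20 nM; substrate b-H3K9 500 nM; cofactor SAM 20 uM; 2 h RT reaction; compounds tested as titrations in qHTS with 15 min preincubation.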", "values": [{"smiles": "Cc1cccc(NCc2ccc(O)c3ncccc23)c1C", "Potency": "active: 0.398 µM"}, {"smiles": "CC(C)NC(=O)Cn1c(=O)nc(-c2ccccc2)c2ccccc21", "Potency": "inactive"}, {"smiles": "CCOC(=O)c1c(-c2ccc(OC)cc2)csc1/N=C/C1C(=O)CCCC1=O", "Potency": "active: 44.7 µM"}, {"smiles": "COc1ccc(C2N(c3ccccc3)C(=O)C2(F)F)cc1OC", "note": "(stereo not given)", "Potency": "inactive"}, {"smiles": "CCOc1cc(CNCCCN2CCOCC2)ccc1OCC(=O)Nc1cccc2ccccc12", "Potency": "inconclusive: 89.1 µM [inhibitor, single point]"}, {"smiles": "Nc1nnc(SC2CC(=O)N(c3ccccc3)C2=O)s1", "note": "(stereo not given)", "Potency": "active: 8.91 µM"}, {"smiles": "CCN1CCn2c3c(c4cc(Cl)ccc42)CCCC31", "note": "(stereo not given)", "Potency": "inconclusive: 50.1 µM [inhibitor, partial curve]"}, {"smiles": "Cc1nc(-n2nc(C)c(CCC(C)C)c2C)sc1C(=O)Nc1cccc(Cl)c1C", "Potency": "active: 14.1 µM"}, {"smiles": "C=CCC1Cc2c(Br)cccc2C(CC=C)N1", "note": "(stereo not given)", "Potency": "inconclusive: 79.4 µM [inhibitor, partial curve, poor fit]"}, {"smiles": "CCOC(=O)c1c(NC(=O)c2ccccc2C)sc2c1CCCC2", "Potency": "active: 7.94 µM"}, {"smiles": "Cc1ccc(OCCNc2cc(N3CCN(CCO)CC3)ccc2[N+](=O)[O-])cc1C", "Potency": "inconclusive: 22.4 µM [inhibitor, partial curve, poor fit]"}, {"smiles": "C=CCN1C(=O)C(O)(CC(=O)c2ccc(N)cc2)c2ccccc21", "note": "(stereo not given)", "Potency": "inconclusive: 89.1 µM [inhibitor, single point]"}, {"smiles": "Cc1cc(NC(=O)Nc2ccccc2Cl)no1", "Potency": "inconclusive: 89.1 µM [inhibitor, single point]"}, {"smiles": "CCN1CCN(c2ccc(S(=O)(=O)N3CCCCC3)cc2NC(=O)CC(C)c2ccccc2)CC1", "note": "(stereo not given)", "Potency": "active: 50.1 µM"}, {"smiles": "COCCn1c(=S)[nH]c2cc(C(=O)NC(C)C)ccc2c1=O", "Potency": "active: 11.2 µM"}, {"smiles": "O=C(COC(=O)c1ccc([N+](=O)[O-])s1)Nc1ccc(Cl)cn1", "Potency": "inactive"}, {"smiles": "CCOc1ccc(NC(=O)CN(C)C(=O)c2ccc(NC3CC3)c([N+](=O)[O-])c2)cc1OCC", "Potency": "inconclusive: 7.94 µM [inhibitor, full curve, poor fit]"}, {"smiles": "COC(=O)C1=C(C(=O)OC)[C@@H]2N(Cc3ccccc3)c3ccccc3[C@@]23C[C@@H](C(=O)OC)N(C(=O)c2ccc(Br)cc2)C3=N1", "Potency": "inconclusive: 35.5 µM [inhibitor, partial curve, poor fit]"}, {"smiles": "CC(Sc1nc2ccccc2s1)C(=O)c1c(N)n(C)c(=O)n(C)c1=O", "note": "(stereo not given)", "Potency": "inconclusive: 56.2 µM [inhibitor, partial curve, poor fit]"}, {"smiles": "Nc1cc(=O)[nH]c(SCC(=O)N2N=C(c3ccc(Cl)cc3)CC2c2ccco2)n1", "note": "(stereo not given)", "Potency": "inconclusive: 8.91 µM [inhibitor, full curve]"}]}]}
